Data published in the antibiotic and cytotoxicity screens of Wong et al. (2023).
The list shows a part of the results.

test system: S. aureus RN4220; assay: growth inhibition call (relative growth <= 0.2); settings: 50 µM

Growth inhibition call, active:
CCCCCC(=O)Cc1cc(O)cc(O)c1C(=O)Oc1cc(CC(=O)CCCCC)c(C(=O)O)c(OC)c1

Growth inhibition call, inactive:
CO[C@@H]1CN(C)C(=O)c2cc(NS(=O)(=O)c3cn(C)cn3)ccc2OC[C@H](C)N(CCC(F)(F)F)C[C@H]1C
CNC(=O)c1cnc2n1CCN(Cc1nccn1C)C2
Cc1noc(C)c1S(=O)(=O)Nc1ccc2c(c1)C(=O)N([C@H](C)CO)C[C@@H](C)[C@@H](CN(C)C)OCCCC[C@@H](C)O2
C[C@@H]1CN([C@@H](C)CO)S(=O)(=O)c2ccc(-c3cccnc3)cc2O[C@H]1CN(C)CC1CCOCC1
Cc1cc(C)n(C)c(=O)c1C(=O)O
Cc1noc(C)c1NC(=O)N(C)C[C@H]1OCCCC[C@H](C)Oc2ccc(NS(=O)(=O)c3cccs3)cc2C(=O)N([C@H](C)CO)C[C@@H]1C
COc1ccc(NC(=O)Nc2ccc3c(c2)C(=O)N([C@H](C)CO)C[C@H](C)[C@@H](CN(C)Cc2ccc(C(F)(F)F)cc2)O3)cc1
COc1ccc2c3c(n(c2c1)C)[C@H](CO)N(CC1CCOCC1)C[C@]13CCN(CC1)C(=O)Cc1cccnc1
COc1ccc(C#Cc2ccc3c(c2)O[C@H](CN(C)S(=O)(=O)c2ccccc2F)[C@@H](C)CN([C@H](C)CO)S3(=O)=O)cc1
O=C(O)CNC(=O)c1ccc(S(=O)(=O)N2CCOCC2)cc1
O=C(C[C@H]1C[C@H]2c3cc(NC(=O)c4ccc5c(c4)OCO5)ccc3O[C@H]2[C@@H](CO)O1)NCc1ccc(Oc2ccccc2)cc1
C[C@@H]1CN([C@H](C)CO)C(=O)c2cc(NC(=O)Nc3ccc(F)cc3)ccc2O[C@@H]1CN(C)Cc1ccc(Cl)c(Cl)c1
COCC#Cc1ccc2c(c1)O[C@@H](CN(C)C(=O)CN(C)C)[C@@H](C)CN([C@H](C)CO)S2(=O)=O
C[C@@H]1CN([C@@H](C)CO)C(=O)c2cc(NC(=O)NC3CCCCC3)ccc2O[C@@H]1CN(C)Cc1ccc(Oc2ccccc2)cc1
Cc1ccc(S(=O)(=O)N(C)C[C@@H]2Oc3c(NS(=O)(=O)c4c(C)noc4C)cccc3C(=O)N([C@@H](C)CO)C[C@@H]2C)cc1
O=C(Cc1ccncc1)Nc1ccc2c(c1)[C@@H]1C[C@@H](CC(=O)N3CCc4ccccc4C3)O[C@H](CO)[C@@H]1O2
C[C@@H]1CN([C@@H](C)CO)C(=O)c2cccc(NC(=O)C3CCOCC3)c2O[C@H]1CN(C)Cc1ccncc1
Clc1ccc(COC(Cn2ccnc2)c2ccc(Cl)cc2Cl)c(Cl)c1.O=[N+]([O-])O (stereo not given)
C[C@@H]1CN([C@@H](C)CO)C(=O)c2cccc(NC(=O)C3CCCCC3)c2O[C@H]1CN(C)S(=O)(=O)c1cn(C)cn1
C[C@H](CO)N1C[C@H](C)[C@H](CN(C)S(=O)(=O)c2cn(C)cn2)Oc2ccc(NC(=O)Cn3cnnn3)cc2C1=O
O=C(O)C[C@@H](C(=O)O)[C@H](O)c1ccccc1
Cc1noc(C)c1NC(=O)Nc1ccc2c(c1)C(=O)N([C@@H](C)CO)C[C@H](C)[C@H](CN(C)Cc1ccc3c(c1)OCO3)OCCCC[C@H](C)O2
CC(C)c1ccccc1Cc1cc(C(=O)Nc2ccc(S(=O)(=O)c3ccccc3C(C)(C)C)cc2)c(O)c(O)c1O
CCCC#Cc1cnc2c(c1)C(=O)N([C@@H](C)CO)C[C@@H](C)[C@@H](CN(C)S(=O)(=O)c1cccc(OC)c1)O2
CC(=O)Nc1cc(Cl)ccc1C
CC(C)NC(=O)N(C)C[C@@H]1OCCCC[C@@H](C)Oc2ccc(NC(=O)Nc3ccc(C(F)(F)F)cc3)cc2C(=O)N([C@@H](C)CO)C[C@@H]1C
C[C@@H]1CN([C@@H](C)CO)C(=O)c2cccc(NS(=O)(=O)c3ccc(F)cc3)c2O[C@@H]1CN(C)Cc1ccc(-c2ccccc2)cc1
CC(=CCC1=C(C)C(=O)c2ccccc2C1=O)CCCC(C)CCCC(C)CCCC(C)C (stereo not given)
COc1ccc(C#Cc2ccc3c(c2)O[C@H](CN(C)C(=O)c2ccccn2)[C@@H](C)CN([C@H](C)CO)S3(=O)=O)cc1
Cc1ccccc1S(=O)(=O)N1[C@@H]2c3cccc(=O)n3C[C@H]1[C@H](CO)[C@H]2C(=O)N1CCOCC1
COc1cccc(NC(=O)N2C[C@@H](O)COC[C@H]3O[C@@H](CC(=O)NC4Cc5ccccc5C4)CC[C@@H]32)c1
N=C(N)NS(=O)(=O)c1ccc(N)cc1
C[C@H](CO)N1C[C@H](C)[C@H](CN(C)Cc2ccc(Oc3ccccc3)cc2)Oc2ccc(NC(=O)Cn3cnnn3)cc2C1=O
C[C@H](CO)N1C[C@H](C)[C@H](CN(C)C(=O)Nc2ccc(F)cc2)OCc2ccccc2-c2ccccc2C1=O
COc1ccc(S(=O)(=O)Nc2cccc3c2O[C@@H](CN(C)C(=O)NC(C)C)[C@H](C)CN([C@@H](C)CO)C3=O)cc1
C[C@H](CO)N1C[C@H](C)[C@@H](CN(C)Cc2ccc(C(=O)O)cc2)OCCCC[C@H](C)Oc2ccc(NC(=O)Nc3ccccc3)cc2C1=O
O=C(C[C@@H]1CC[C@H]2[C@@H](COC[C@@H](O)CN2S(=O)(=O)c2ccccc2)O1)NCCN1CCCCC1
Cc1noc(C)c1NC(=O)N(C)C[C@H]1OCCCC[C@H](C)Oc2ccc(NS(=O)(=O)c3ccc(F)cc3)cc2C(=O)N([C@@H](C)CO)C[C@@H]1C
c1coc(-c2nc3ccccc3n2CCC2CCCCC2)c1
